{"source": "ChEMBL document CHEMBL4888484", "about": "“Replenishing the malaria drug discovery pipeline: Screening and hit evaluation of the MMV Hit Generation Library 1 (HGL1) against asexual blood stage Plasmodium falciparum ,using a nano luciferase reporter read-out” (2022)", "note": "The campaign covered roughly 150,000 compounds. About 540 (0.36%) showed an effect of 50% or more. The list shows a part of the results."}
{"test_system": "Plasmodium falciparum", "test": "Primary screen in NF54 nanoGlo assay, in single point, at 2uM, 72h; a lower Z score goes with more inhibition", "type": "functional, Erythrocyte", "details": "timepoint 72 hour", "units": {"% Inhibition": "%"}}
{"smiles": "O=C(NCC1(c2ccccc2)CC1)N1CCC[C@H]1c1ccncc1", "% Inhibition": -7, "Z score": 1.3}
{"smiles": "C[C@H](c1ccccc1)c1nc(-c2ccc(=O)[nH]c2)no1", "% Inhibition": -3, "Z score": 0.52}
{"smiles": "CCc1nc(C(=O)N(C)C2CCC(CC)CC2)co1", "note": "(stereo not given)", "% Inhibition": -8, "Z score": 1.17}
{"smiles": "COc1ccc(-c2nnc(NC(=O)c3ccc(Oc4ccccc4)cc3)o2)cc1", "% Inhibition": 4, "Z score": -0.7}
{"smiles": "O=c1ccc(S(=O)(=O)N2CCCCCC2)cn1Cc1ccc(Cl)cc1", "% Inhibition": -9, "Z score": 1.85}
{"smiles": "Cc1c(Cl)cccc1-n1ccnc(NC(=O)NCCc2ccccc2)c1=O", "% Inhibition": -11, "Z score": 1.46}
{"smiles": "C[C@H](NC(=O)CN1CCC2(CCC(=O)N(C3CC3)C2)CC1)c1ccccc1", "% Inhibition": -1, "Z score": 0.18}
{"smiles": "CCOc1ccc(-c2c(C)nn3c(O)c(NCCc4c[nH]c5ccccc45)c(C)nc23)cc1OCC", "% Inhibition": -3, "Z score": 0.5}
{"smiles": "O=S(=O)(Cc1ccccc1F)N1CC[C@H](Oc2cnsn2)C1", "% Inhibition": -10, "Z score": 1.84}
{"smiles": "Cc1cc(NC(=O)c2ccco2)nnc1C", "% Inhibition": 5, "Z score": -0.8}
{"smiles": "c1ccc(-c2cn3c(n2)c(-c2ccc4ccccc4n2)cc2ccccc23)cc1", "% Inhibition": 76, "Z score": -4.16}
{"smiles": "Cc1ccccc1CNc1nnc(-c2ccc(S(C)(=O)=O)cc2)o1", "% Inhibition": -17, "Z score": 1.7}
{"smiles": "Cc1nc2c(c(N3CCC(Oc4ccccc4C)CC3)n1)CNC2", "% Inhibition": -2, "Z score": 0.28}
{"smiles": "O=C(c1c[nH]c(C(F)(F)F)c1)N1CC[C@H](Nc2ncccn2)C1", "% Inhibition": 5, "Z score": -0.72}
{"smiles": "C[C@H]1[C@@H](N)CCCN1C(=O)[C@H]1C[C@@H]1c1ccccc1C(F)(F)F", "% Inhibition": -3, "Z score": 0.28}
{"smiles": "CCS(=O)(=O)N[C@@H](C)c1ccccc1Br", "% Inhibition": -12, "Z score": 2.64}
{"smiles": "C[C@H]1CCCCN1C(=O)Nc1ccc2sncc2c1", "% Inhibition": -9, "Z score": 0.93}
{"smiles": "N#Cc1cccc(OCc2cccc(C(=O)N3CCC[C@H](O)C3)c2)c1", "% Inhibition": -12, "Z score": 1.91}
{"smiles": "COc1n[nH]c(NC(=O)[C@H]2C[C@@H]2c2ccccc2Cl)c1C#N", "% Inhibition": -7, "Z score": 1.16}
{"smiles": "COC1CCN(Cc2cn(Cc3ccn(-c4ccccc4)n3)nn2)CC1", "% Inhibition": -13, "Z score": 2.41}
{"smiles": "O=C(N[C@H]1CCN(Cc2noc(-c3ccccc3)n2)C1)c1ccn[nH]1", "% Inhibition": -16, "Z score": 1.77}
{"smiles": "Cc1nocc1NC(=O)CC1CC2CCC1C2", "note": "(stereo not given)", "% Inhibition": -11, "Z score": 1.54}
{"smiles": "C[C@H]1CN(Cc2ccccc2)Cc2c1nc(N)c(C#N)c2-c1ccco1", "% Inhibition": 2, "Z score": -0.29}
{"smiles": "C[C@](O)(CNC(=O)Nc1ccccc1)c1ccc(-c2ccccc2)cc1", "% Inhibition": -5, "Z score": 0.81}
{"smiles": "CC[C@@](C)(COc1ncccc1Cl)NC(=O)CCc1nc2c([nH]1)c(=O)[nH]c(=O)n2C", "% Inhibition": -4, "Z score": 0.54}
{"smiles": "Cc1ccn(-c2cc(COC(=O)c3cccnc3)ccn2)n1", "% Inhibition": 10, "Z score": -1.37}
{"smiles": "COC1(C(F)(F)F)CN(C(=O)NC2CCC3(CC2)COC3)C1", "% Inhibition": -1, "Z score": 0.11}
{"smiles": "c1ccc(C(NCc2nnc(-c3ccco3)o2)c2ccccc2)cc1", "% Inhibition": -2, "Z score": 0.47}
{"smiles": "Cc1nnc([C@H](C)N2CCC(C(=O)Nc3ccccc3)CC2)s1", "% Inhibition": 0, "Z score": 0.06}
{"smiles": "CC(C)n1nnnc1CN(C)OCc1ccccc1", "% Inhibition": -3, "Z score": 0.46}
{"smiles": "COc1ccc(CC(=O)Nc2cc(-c3ccco3)no2)cc1OC", "% Inhibition": -4, "Z score": 0.61}
{"smiles": "COCCN1C(=O)[C@H]2CN(S(=O)(=O)c3ccccc3)C[C@H]2C1=O", "% Inhibition": -8, "Z score": 1}
{"smiles": "CC(C)(C)c1noc(CCc2ncc[nH]2)n1", "% Inhibition": -12, "Z score": 1.84}
{"smiles": "Cc1nc(-c2ccco2)sc1CNS(=O)(=O)c1c(C)noc1C", "% Inhibition": 8, "Z score": -1.51}
{"smiles": "CCc1noc(CN(C)C(=O)CCC(=O)N2CCCCCC2)n1", "% Inhibition": 4, "Z score": -0.66}
{"smiles": "CC[C@H](C)CN(C)C(=O)Nc1ccc(OC2CCOCC2)c(C)c1", "% Inhibition": 1, "Z score": -0.06}
{"smiles": "Cc1cnc(COCC(=O)N2CCC[C@H]2COc2ccccc2)o1", "% Inhibition": -3, "Z score": 0.58}
{"smiles": "CCn1cc(NS(=O)(=O)CCCCS(=O)(=O)NCC2CC2)cn1", "% Inhibition": -5, "Z score": 0.68}
{"smiles": "CCC1CCC(NCCCN2CCOCC2)CC1", "note": "(stereo not given)", "% Inhibition": -4, "Z score": 0.62}
{"smiles": "Cc1cc(CC(=O)NCc2nc3cccc(C)c3n2C)n[nH]1", "% Inhibition": 2, "Z score": -0.32}
{"smiles": "COc1ccc(C)cc1NCc1csc([C@@H]2CCCO2)n1", "% Inhibition": -4, "Z score": 0.53}
{"smiles": "CCc1ccc([C@H](C)NS(=O)(=O)c2cc3c(s2)CCN(C(C)=O)C3)cc1", "% Inhibition": 4, "Z score": -0.68}
{"smiles": "Cc1cc(-c2cccc(OC(C)C)c2)cnc1-n1cnnc1", "% Inhibition": -12, "Z score": 2.34}
{"smiles": "C[C@@H]1Oc2cc(S(=O)(=O)N3CCN(C(=O)c4cccs4)CC3)c(Cl)cc2NC1=O", "% Inhibition": -15, "Z score": 1.55}
{"smiles": "COCCn1ccnc1C1CCN(c2nccs2)CC1", "% Inhibition": -12, "Z score": 1.66}
{"smiles": "O=C(NC[C@@H](c1ccco1)n1cccn1)c1cccc(F)c1", "% Inhibition": 2, "Z score": -0.22}
{"smiles": "Cc1oc2ncnc(NC(=O)c3ccc([C@H]4CCCOC4)cc3)c2c1C", "% Inhibition": 3, "Z score": -0.49}
{"smiles": "COc1cccc(C2c3c(C)nn(-c4ccc(C)cc4)c3NC(=O)C2NC(=O)c2ccccc2)c1", "note": "(stereo not given)", "% Inhibition": -18, "Z score": 1.81}
{"smiles": "CN(CC1CC1)C[C@H]1CCN(C(=O)C2(C(=O)O)CCCCCC2)C1", "% Inhibition": -12, "Z score": 1.42}
{"smiles": "Cc1cc(C)n2cc(CNc3ccc(Cl)cc3)nc2n1", "% Inhibition": -2, "Z score": 0.32}
{"smiles": "Cc1ccc(NC(=O)c2ccc3nc(C(C)C)oc3c2)cc1C", "% Inhibition": -9, "Z score": 0.79}
{"smiles": "Nc1ccc(CC(=O)N2CCC(OCC3CCCC3)CC2)cc1", "% Inhibition": -15, "Z score": 1.42}
{"smiles": "Cc1cccc2[nH]cc(CCNC(=O)N3CCOCC3)c12", "% Inhibition": 1, "Z score": -0.12}
{"smiles": "CCn1nc(C)c(-c2cc(-c3cc(O)ccc3OC)c(C#N)c(N)n2)c1C", "% Inhibition": -5, "Z score": 0.88}
{"smiles": "CCOc1ccc(Cl)cc1CN(C)C[C@]1(O)CCCNC1", "% Inhibition": -10, "Z score": 1.49}
